Among all 44,000 compounds or so, about 340 (0.77%) were called active. Roughly 5% stayed inconclusive and do not appear here. Calls come from the whole dose curve; as a rule, active = well fitted inhibition curve with a large enough effect; inconclusive = small, poorly fitted or top-dose-only effect; inactive = flat fitted curve, though single readings scatter. The list shows a part of the results.
Assay: Acumen qHTS Assay for Inhibitors of the mTORC1 Signaling Pathway in MEF (Tsc2-/-, p53-/-) Cells: Sytravon;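 note: plate controls were DMSO for no effect and rapamycin for full effect; nearly all actives have a fitted effect of over 50% in size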
Settings: phospho-rpS6 immunofluorescence/PI, 24 h; series mostly up to 38.3 µM; activity change, negative = inhibition: at the top concentration
Procedure, shortened: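 Readout is phospho-S6 Alexa 488 signal normalized to PI per well, reported as % active cells with thresholds set from rapamycin (7.5 nM) and DMSO controls. Cells: Tsc2-/-, p53-/- MEFs, 24 hrs compound at 37 C; PI cell number serves as viability.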

Activity change, negative = inhibition, inactive:
COc1ccc(CC(=O)NC2CC(=O)N(c3ccc4c(c3)OCCO4)C2)cc1 (centres undefined) -1.75%, CC(C)NC(=O)c1ccc(Cn2c(=O)c3cccn3c3cccnc32)cc1 0.835%, Nc1c(C(=O)Nc2cccc(Cl)c2)sc2nc3c(cc12)CN(Cc1ccccc1)CC3 -13.5%, CCOCCCn1c(=N)c(S(=O)(=O)c2ccc(C)cc2)cc2c(=O)n3ccccc3nc21 1.63%, CCOC(=O)c1c(NC(=O)C(C)Sc2cn(CCNC(=O)c3ccc(OC)c(OC)c3)c3ccccc23)sc2c1CCC2 (centres undefined) 4.03%, COc1ccc2nc3sc(C(=O)Nc4cc(Cl)c(OC)cc4OC)cc3cc2c1 4.22%, Cc1c(NC(=O)c2cc(-c3cccc(Cl)c3)on2)c(=O)n(-c2ccccc2)n1C -14.6%, O=C(CSc1nncn2c1cc1sccc12)Nc1ccccc1C(F)(F)F 0%, O=C(NCCC1=CCCCC1)c1ccc2c(c1)N(Cc1ccc(F)cc1)C(=O)c1ccccc1S2(=O)=O 1.55%, CCOC(=O)c1c(C)oc2nc(C)nc(NCc3ccc(C)cc3)c12 -1.95%, CCN1CCN(Cc2c(O)ccc3c(=O)c(Oc4ccccc4Cl)c(C(F)(F)F)oc23)CC1 -1.58%, COCCCNc1nc2c(-c3ccccc3)nnn2c2ccccc12 -6.88%, CCOCCCn1c(=N)c(C(=O)NCc2ccco2)cc2c(=O)n3ccccc3nc21 -1.84%, COC(=O)c1ccccc1NC(=O)c1cc2nc(-c3ccccc3)cc(-c3ccccc3)n2n1 4.28%, Cc1cccc(N2CCN(S(=O)(=O)c3ccc4oc(=O)c5ncn(C)c5c4c3)CC2C)c1 (centres undefined) -1.06%, COc1ccc(N(C(=O)COc2c(C)cccc2C)S(=O)(=O)c2ccc(Cl)cc2)cc1 16%, Cc1ccccc1C(=O)NCC(c1cccnc1)N1CCc2ccccc21 (centres undefined) -3.17%, COc1ccc(NC(=O)C2(c3cccs3)CCOCC2)cc1Cl 3.86%, CCOC(=O)c1c(C)sc(-c2c(-c3ccc4c(c3)OCCO4)[nH]c3c2c(=O)[nH]c(=O)n3C)c1O -29.4%, COc1cccc(N2CCN(C(=O)c3c(C)oc4ncnc(N5CCCCC5)c34)CC2)c1 -26.7%, Cc1ccc(-c2nnc(Nc3ccc(O)cc3)c3ccccc23)cc1S(=O)(=O)NCc1nc2ccccc2[nH]1 -0.196%, COc1ccc(N2CC3=C(C2=O)C(c2ccc(Br)cc2)NC(=O)N3C)cc1 (centres undefined) 9.29%, Cc1cc(Nc2sc(C(=O)c3ccc(F)cc3)c(N)c2C(=O)Nc2ccc(F)cc2)ccc1Cl -11.2%, Cc1ccc(Cl)cc1N1CCN(CCCNc2ncnc3onc(-c4ccc(F)cc4)c23)CC1 -1.2%, O=C1CC(=O)Nc2cc(S(=O)(=O)N3CCOc4ccccc43)ccc2N1 -0.844%, CC(C)CN(CCCNC(=O)CN1C(=O)COc2ccc(S(=O)(=O)N3CCCCCC3)cc21)CC(C)C -21.3%, COc1cc(NC(=O)CSc2nc(C)c(C(=O)Nc3ccccc3)c(-c3ccc(OC)c(OC)c3)c2C#N)c(OC)cc1Cl -9.28%, Cc1cc(C)n(-c2nc3cc(Cl)ccc3nc2Nc2ccc(CC(=O)O)cc2)n1 0.874%, COc1ccc2nc(NC(=O)c3nc(SCc4ccccc4F)ncc3Cl)sc2c1 2.3%, COc1ccccc1CNC(=O)C1CCN(S(=O)(=O)c2ccc3c(ccn3C)c2)CC1 -4.61%, CCCCn1c(NCc2cc(Br)ccc2O)nc2ccccc21 1.97%, COC(=O)c1c(-c2cccs2)csc1NC(=O)c1ccc(OC)c(OC)c1 -10.9%, CCNC(=O)C1CCN(c2nnc(C)c3c(C)n(-c4ccc(OC)cc4)nc23)CC1 -3.15%, Cc1ccc2c(c1)NC(=O)c1cccnc1O2 -1.5%, Cc1ccc(-c2nc(CS(=O)(=O)CC(=O)NCCc3ccccc3)c(C)o2)cc1 1.18%, COc1ccc(S(=O)(=O)c2c(SC)nn(CC(=O)Nc3cccc(C)c3C)c2N)cc1 5.29%, COc1ccc(CNC(=O)Cn2nc(N3CCN(c4ccccc4)CC3)ccc2=O)c(OC)c1 0.189%, CC1=C(C(=O)Nc2ccccc2)C(c2ccncc2)n2nc(SCc3ccccc3F)nc2N1 (centres undefined) 0%, CCC(C)Nc1oc(-c2ccc(COc3ccc(Cl)cc3)o2)nc1C#N (centres undefined) -15%, O=C(Nc1ccc(OCc2cc(=O)n3ccccc3n2)cc1)c1ccccc1Cl 0.992%, CCC(C)NC(=O)CSc1nc2c(sc3ccccc32)c(=O)n1CCc1ccc(OC)c(OC)c1 (centres undefined) -0.207%, CCN(CC)c1nc2c(S(=O)(=O)c3cccc(Cl)c3)nnn2c2ccsc12 5.02%, CCn1cc(C(=O)NCc2ccc(C)cc2)c(=O)c2cc(S(=O)(=O)N(C)C3CCCCC3)ccc21 -14.9%, CCc1ccc(CN(Cc2ccco2)C(=O)COc2ccc(Cl)c(C)c2)cc1 -16.6%, CCN1CCN(C(=O)Cn2c(-c3cccs3)cc3ccccc32)CC1 -9.55%, COc1cccc(OCc2cc(=O)n3c(-c4ccccc4)csc3n2)c1 0.0737%, COc1nc(-c2ccccc2)ccc1-c1noc(-c2ccccc2Br)n1 13.5%, COC(=O)c1cccc(NC(=O)c2nsc3ccccc23)c1 -3.5%, COc1ccc(CCNC(=O)c2ccc3c(c2)N(Cc2ccccc2F)C(=O)c2ccccc2S3=O)cc1OC (centres undefined) 6.21%, O=C(CN1C(=O)COc2ccc(S(=O)(=O)N3CCCC3)cc21)N1CCN(c2cccc(C(F)(F)F)c2)CC1 -10.2%, CCOc1ccccc1CNC(=O)CCc1c(C)nn(-c2ccc(N3CCOCC3)nn2)c1C 2.85%, CCN(CC)S(=O)(=O)c1ccc(C(=O)NCCSc2c(-c3ccc(C)cc3)[nH]c3ccccc23)cc1 1.19%, COc1ccc(N2CCN(S(=O)(=O)CCNC(=O)COc3ccccc3F)CC2)cc1 0%, CCOC(=O)CSc1nc(-c2ccc(Cl)cc2)cc(C(F)(F)F)c1C#N -7.04%, Cc1ccc(C(=O)Oc2c(S(=O)(=O)c3ccccc3)c(C)nn2-c2ccccc2)cc1 -14.7%, Cc1cn2c(=O)cc(COC(=O)c3cccc(NC(=O)COc4ccccc4C)c3)nc2s1 0%, Cc1ccccc1C(=O)NCCc1csc(-c2ccc(C(F)(F)F)cc2)n1 -29.9%, COc1ccc(-n2c(-c3ccc(C)cc3)cc3c2CC(C)(C)CC3=O)c(OC)c1 -18.2%, Cc1ccc(Cc2nc3ccccc3nc2SCC(=O)N2CCCc3ccccc32)cc1 10.2%

Source: PubChem BioAssay AID493208 (National Center for Advancing Translational Sciences (NCATS), 2011)
